The values below come from article PMC12069442.

By Km is commonly meant the concentration of substrate that gives half-maximal velocity. By kcat is commonly meant the number of substrate molecules converted per active site and unit of time at saturation.

Substrate in the data set: O=C1Cc2cc(CCN3CCN(c4nsc5ccccc45)CC3)c(Cl)cc2N1
Briefly: not read. As to conditions: 20 min.

Setting [1] is: other: CYP3A4.13, ziprasidone 0.1–25 μM.
Setting [2] is: other: CYP3A4.28, ziprasidone 0.1–25 μM.
The mark [3] stands for this setting: other: CYP3A4.14, ziprasidone 0.1–25 μM.
The mark [4] stands for this setting: other: CYP3A4.23, ziprasidone 0.1–25 μM.
The mark [5] stands for this setting: other: CYP3A4.16, ziprasidone 0.1–25 μM.
Setting [6] is: other: CYP3A4.31, ziprasidone 0.1–25 μM.
[7] abbreviates: other: CYP3A4.24, ziprasidone 0.1–25 μM.
The mark [8] stands for this setting: other: CYP3A4.19, ziprasidone 0.1–25 μM.
[9] abbreviates: other: CYP3A4.15, ziprasidone 0.1–25 μM.
Setting [10] is: other: CYP3A4.18, ziprasidone 0.1–25 μM.

B1: CYP3A4.13 (Homo sapiens; P416L) (protein)
chain: MALIPDLAMETWLLLAVSLVLLYLYGTHSHGLFKKLGIPGPTPLPFLGNILSYHKGFCMFDMECHKKYGKVWGFYDGQQPVLAITDPDMIKTVLVKECYSVFTNRRPFGPVGFMKSAISIAEDEEWKRLRSLLSPTFTSGKLKEMVPIIAQYGDVLVRNLRREAETGKPVTLKDVFGAYSMDVITSTSFGVNIDSLNNPQDPFVENTKKLLRFDFLDPFFLSITVFPFLIPILEVLNICVFPREVTNFLRKSVKRMKESRLEDTQKHRVDFLQLMIDSQNSKETESHKALSDLELVAQSIIFIFAGYETTSSVLSFIMYELATHPDVQQKLQEEIDAVLPNKAPPTYDTVLQMEYLDMVVNETLRLFPIAMRLERVCKKDVEINGMFIPKGVVVMIPSYALHRDPKYWTEPEKFLLERFSKKNKDNIDPYIYTPFGSGPRNCIGMRFALMNMKLALIRVLQNFSFKPCKETQIPLKLSLGGLLQPEKPVVLKVESRDGTVSGA
B1: under setting [1], the Km worked out at 0.73 ± 0.15 µM and the kcat worked out at 0.0668 ± 0.00183 s⁻¹.

B2: CYP3A4.28 (Homo sapiens; L22V) (protein)
chain: MALIPDLAMETWLLLAVSLVLVYLYGTHSHGLFKKLGIPGPTPLPFLGNILSYHKGFCMFDMECHKKYGKVWGFYDGQQPVLAITDPDMIKTVLVKECYSVFTNRRPFGPVGFMKSAISIAEDEEWKRLRSLLSPTFTSGKLKEMVPIIAQYGDVLVRNLRREAETGKPVTLKDVFGAYSMDVITSTSFGVNIDSLNNPQDPFVENTKKLLRFDFLDPFFLSITVFPFLIPILEVLNICVFPREVTNFLRKSVKRMKESRLEDTQKHRVDFLQLMIDSQNSKETESHKALSDLELVAQSIIFIFAGYETTSSVLSFIMYELATHPDVQQKLQEEIDAVLPNKAPPTYDTVLQMEYLDMVVNETLRLFPIAMRLERVCKKDVEINGMFIPKGVVVMIPSYALHRDPKYWTEPEKFLPERFSKKNKDNIDPYIYTPFGSGPRNCIGMRFALMNMKLALIRVLQNFSFKPCKETQIPLKLSLGGLLQPEKPVVLKVESRDGTVSGA
Consider B2, for which, under setting [2], the Km is 4.36 ± 2.63 µM and the kcat turned out to be 0.385 ± 0.171 s⁻¹.

B3: CYP3A4.14 (Homo sapiens; L15P) (protein)
chain: MALIPDLAMETWLLPAVSLVLLYLYGTHSHGLFKKLGIPGPTPLPFLGNILSYHKGFCMFDMECHKKYGKVWGFYDGQQPVLAITDPDMIKTVLVKECYSVFTNRRPFGPVGFMKSAISIAEDEEWKRLRSLLSPTFTSGKLKEMVPIIAQYGDVLVRNLRREAETGKPVTLKDVFGAYSMDVITSTSFGVNIDSLNNPQDPFVENTKKLLRFDFLDPFFLSITVFPFLIPILEVLNICVFPREVTNFLRKSVKRMKESRLEDTQKHRVDFLQLMIDSQNSKETESHKALSDLELVAQSIIFIFAGYETTSSVLSFIMYELATHPDVQQKLQEEIDAVLPNKAPPTYDTVLQMEYLDMVVNETLRLFPIAMRLERVCKKDVEINGMFIPKGVVVMIPSYALHRDPKYWTEPEKFLPERFSKKNKDNIDPYIYTPFGSGPRNCIGMRFALMNMKLALIRVLQNFSFKPCKETQIPLKLSLGGLLQPEKPVVLKVESRDGTVSGA
For the protein B3, under setting [3], the Km amounted to 1.93 ± 0.31 µM and the kcat came out at 0.212 ± 0.0212 s⁻¹.

B4: CYP3A4.23 (Homo sapiens; R162W) (protein)
chain: MALIPDLAMETWLLLAVSLVLLYLYGTHSHGLFKKLGIPGPTPLPFLGNILSYHKGFCMFDMECHKKYGKVWGFYDGQQPVLAITDPDMIKTVLVKECYSVFTNRRPFGPVGFMKSAISIAEDEEWKRLRSLLSPTFTSGKLKEMVPIIAQYGDVLVRNLRWEAETGKPVTLKDVFGAYSMDVITSTSFGVNIDSLNNPQDPFVENTKKLLRFDFLDPFFLSITVFPFLIPILEVLNICVFPREVTNFLRKSVKRMKESRLEDTQKHRVDFLQLMIDSQNSKETESHKALSDLELVAQSIIFIFAGYETTSSVLSFIMYELATHPDVQQKLQEEIDAVLPNKAPPTYDTVLQMEYLDMVVNETLRLFPIAMRLERVCKKDVEINGMFIPKGVVVMIPSYALHRDPKYWTEPEKFLPERFSKKNKDNIDPYIYTPFGSGPRNCIGMRFALMNMKLALIRVLQNFSFKPCKETQIPLKLSLGGLLQPEKPVVLKVESRDGTVSGA
For the protein B4, under setting [4], the Km came out at 2.62 ± 0.82 µM and the kcat was found to be 0.26 ± 0.05 s⁻¹.

B5: CYP3A4.16 (Homo sapiens; T185S) (protein)
chain: MALIPDLAMETWLLLAVSLVLLYLYGTHSHGLFKKLGIPGPTPLPFLGNILSYHKGFCMFDMECHKKYGKVWGFYDGQQPVLAITDPDMIKTVLVKECYSVFTNRRPFGPVGFMKSAISIAEDEEWKRLRSLLSPTFTSGKLKEMVPIIAQYGDVLVRNLRREAETGKPVTLKDVFGAYSMDVISSTSFGVNIDSLNNPQDPFVENTKKLLRFDFLDPFFLSITVFPFLIPILEVLNICVFPREVTNFLRKSVKRMKESRLEDTQKHRVDFLQLMIDSQNSKETESHKALSDLELVAQSIIFIFAGYETTSSVLSFIMYELATHPDVQQKLQEEIDAVLPNKAPPTYDTVLQMEYLDMVVNETLRLFPIAMRLERVCKKDVEINGMFIPKGVVVMIPSYALHRDPKYWTEPEKFLPERFSKKNKDNIDPYIYTPFGSGPRNCIGMRFALMNMKLALIRVLQNFSFKPCKETQIPLKLSLGGLLQPEKPVVLKVESRDGTVSGA
Regarding B5, under setting [5], the Km was found to be 7.07 ± 4.52 µM and the kcat is 0.738 ± 0.33 s⁻¹.

B6: CYP3A4.31 (Homo sapiens; H324Q) (protein)
chain: MALIPDLAMETWLLLAVSLVLLYLYGTHSHGLFKKLGIPGPTPLPFLGNILSYHKGFCMFDMECHKKYGKVWGFYDGQQPVLAITDPDMIKTVLVKECYSVFTNRRPFGPVGFMKSAISIAEDEEWKRLRSLLSPTFTSGKLKEMVPIIAQYGDVLVRNLRREAETGKPVTLKDVFGAYSMDVITSTSFGVNIDSLNNPQDPFVENTKKLLRFDFLDPFFLSITVFPFLIPILEVLNICVFPREVTNFLRKSVKRMKESRLEDTQKHRVDFLQLMIDSQNSKETESHKALSDLELVAQSIIFIFAGYETTSSVLSFIMYELATQPDVQQKLQEEIDAVLPNKAPPTYDTVLQMEYLDMVVNETLRLFPIAMRLERVCKKDVEINGMFIPKGVVVMIPSYALHRDPKYWTEPEKFLPERFSKKNKDNIDPYIYTPFGSGPRNCIGMRFALMNMKLALIRVLQNFSFKPCKETQIPLKLSLGGLLQPEKPVVLKVESRDGTVSGA
On to B6, for which, under setting [6], the Km is 4.80 ± 0.99 µM and the kcat is 0.319 ± 0.0488 s⁻¹.

B7: CYP3A4.24 (Homo sapiens; Q200H) (protein)
chain: MALIPDLAMETWLLLAVSLVLLYLYGTHSHGLFKKLGIPGPTPLPFLGNILSYHKGFCMFDMECHKKYGKVWGFYDGQQPVLAITDPDMIKTVLVKECYSVFTNRRPFGPVGFMKSAISIAEDEEWKRLRSLLSPTFTSGKLKEMVPIIAQYGDVLVRNLRREAETGKPVTLKDVFGAYSMDVITSTSFGVNIDSLNNPHDPFVENTKKLLRFDFLDPFFLSITVFPFLIPILEVLNICVFPREVTNFLRKSVKRMKESRLEDTQKHRVDFLQLMIDSQNSKETESHKALSDLELVAQSIIFIFAGYETTSSVLSFIMYELATHPDVQQKLQEEIDAVLPNKAPPTYDTVLQMEYLDMVVNETLRLFPIAMRLERVCKKDVEINGMFIPKGVVVMIPSYALHRDPKYWTEPEKFLPERFSKKNKDNIDPYIYTPFGSGPRNCIGMRFALMNMKLALIRVLQNFSFKPCKETQIPLKLSLGGLLQPEKPVVLKVESRDGTVSGA
As to B7, under setting [7], the Km worked out at 2.56 ± 0.63 µM and the kcat worked out at 0.144 ± 0.02 s⁻¹.

B8: CYP3A4.19 (Homo sapiens; P467S) (protein)
chain: MALIPDLAMETWLLLAVSLVLLYLYGTHSHGLFKKLGIPGPTPLPFLGNILSYHKGFCMFDMECHKKYGKVWGFYDGQQPVLAITDPDMIKTVLVKECYSVFTNRRPFGPVGFMKSAISIAEDEEWKRLRSLLSPTFTSGKLKEMVPIIAQYGDVLVRNLRREAETGKPVTLKDVFGAYSMDVITSTSFGVNIDSLNNPQDPFVENTKKLLRFDFLDPFFLSITVFPFLIPILEVLNICVFPREVTNFLRKSVKRMKESRLEDTQKHRVDFLQLMIDSQNSKETESHKALSDLELVAQSIIFIFAGYETTSSVLSFIMYELATHPDVQQKLQEEIDAVLPNKAPPTYDTVLQMEYLDMVVNETLRLFPIAMRLERVCKKDVEINGMFIPKGVVVMIPSYALHRDPKYWTEPEKFLPERFSKKNKDNIDPYIYTPFGSGPRNCIGMRFALMNMKLALIRVLQNFSFKSCKETQIPLKLSLGGLLQPEKPVVLKVESRDGTVSGA
With B8, under setting [8], the Km was found to be 3.63 ± 0.85 µM and the kcat was 0.371 ± 0.0672 s⁻¹.

B9: CYP3A4.15 (Homo sapiens; R162Q) (protein)
chain: MALIPDLAMETWLLLAVSLVLLYLYGTHSHGLFKKLGIPGPTPLPFLGNILSYHKGFCMFDMECHKKYGKVWGFYDGQQPVLAITDPDMIKTVLVKECYSVFTNRRPFGPVGFMKSAISIAEDEEWKRLRSLLSPTFTSGKLKEMVPIIAQYGDVLVRNLRQEAETGKPVTLKDVFGAYSMDVITSTSFGVNIDSLNNPQDPFVENTKKLLRFDFLDPFFLSITVFPFLIPILEVLNICVFPREVTNFLRKSVKRMKESRLEDTQKHRVDFLQLMIDSQNSKETESHKALSDLELVAQSIIFIFAGYETTSSVLSFIMYELATHPDVQQKLQEEIDAVLPNKAPPTYDTVLQMEYLDMVVNETLRLFPIAMRLERVCKKDVEINGMFIPKGVVVMIPSYALHRDPKYWTEPEKFLPERFSKKNKDNIDPYIYTPFGSGPRNCIGMRFALMNMKLALIRVLQNFSFKPCKETQIPLKLSLGGLLQPEKPVVLKVESRDGTVSGA
Regarding B9, under setting [9], the Km worked out at 3.26 ± 1.31 µM and the kcat stood at 0.497 ± 0.127 s⁻¹.

B10: CYP3A4.18 (Homo sapiens; L293P) (protein)
chain: MALIPDLAMETWLLLAVSLVLLYLYGTHSHGLFKKLGIPGPTPLPFLGNILSYHKGFCMFDMECHKKYGKVWGFYDGQQPVLAITDPDMIKTVLVKECYSVFTNRRPFGPVGFMKSAISIAEDEEWKRLRSLLSPTFTSGKLKEMVPIIAQYGDVLVRNLRREAETGKPVTLKDVFGAYSMDVITSTSFGVNIDSLNNPQDPFVENTKKLLRFDFLDPFFLSITVFPFLIPILEVLNICVFPREVTNFLRKSVKRMKESRLEDTQKHRVDFLQLMIDSQNSKETESHKALSDPELVAQSIIFIFAGYETTSSVLSFIMYELATHPDVQQKLQEEIDAVLPNKAPPTYDTVLQMEYLDMVVNETLRLFPIAMRLERVCKKDVEINGMFIPKGVVVMIPSYALHRDPKYWTEPEKFLPERFSKKNKDNIDPYIYTPFGSGPRNCIGMRFALMNMKLALIRVLQNFSFKPCKETQIPLKLSLGGLLQPEKPVVLKVESRDGTVSGA
As to B10, under setting [10], the Michaelis-Menten constant (Km) was 1.78 ± 0.81 µM and the catalytic constant (kcat) worked out at 0.184 ± 0.047 s⁻¹.
